Assay results taken from PubChem BioAssay AID485344 (National Center for Advancing Translational Sciences (NCATS), 2010).
The campaign covered roughly 340,000 compounds. About 6,900 (2%) were called active. No stated cut-off is given here; in the data, active means inhibition above about 30%; inactive means below that, where a call was filed. The list shows a part of the results, in another mix than the full data. The source gives no active or inactive call for entries shown without one.

Molecular target: D(2) dopamine receptor (Homo sapiens) (UniProt P14416)
Assay: HTS Assay for Allosteric Antagonists of the Human D2 Dopamine Receptor: Primary Screen for Antagonists; further: 0% is about no effect
Conditions: HEK293 TREx D2 cells, calcium flux, dopamine EC80; at 10 µM; stronger effect = higher value
Procedure, shortened: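 Cells plated overnight at 30 C with tetracycline; no-wash calcium dye, 30–90 min RT; 10 s baseline; compound pinned; 180 s read; EC80 dopamine added; another 180 s read.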

Chain of UniProt P14416 (P14416 whole entry, looked up): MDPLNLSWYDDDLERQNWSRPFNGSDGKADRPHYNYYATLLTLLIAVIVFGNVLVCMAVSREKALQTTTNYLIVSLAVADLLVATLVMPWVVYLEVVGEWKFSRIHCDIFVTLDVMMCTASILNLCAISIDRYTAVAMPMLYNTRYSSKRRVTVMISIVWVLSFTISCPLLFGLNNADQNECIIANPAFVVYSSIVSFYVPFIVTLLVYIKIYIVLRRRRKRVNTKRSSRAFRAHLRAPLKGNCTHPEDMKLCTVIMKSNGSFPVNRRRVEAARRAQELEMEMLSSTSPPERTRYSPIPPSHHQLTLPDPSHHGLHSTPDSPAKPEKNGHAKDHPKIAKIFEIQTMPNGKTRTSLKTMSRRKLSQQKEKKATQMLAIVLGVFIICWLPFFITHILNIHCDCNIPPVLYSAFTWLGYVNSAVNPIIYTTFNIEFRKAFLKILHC

| SMILES | inhibition |
| --- | --- |
| COc1ccccc1OCc1nc(-c2cccc(C)c2)no1 | 8.43% |
| COc1ccc(/C=C(/NC(=O)c2cccc([N+](=O)[O-])c2)C(=O)O)cc1OC | active: 55.6% |
| CC1CCN(C(=O)C(C)Sc2nc(-c3ccccc3)cc(C(F)(F)F)n2)CC1 (stereo unspecified) | 0.869% |
| COc1ccc(OC)c(NC(=O)c2c(C)oc3ncnc(N4CCOCC4)c23)c1 | 1.99% |
| O=C(Cn1c(=O)n2nc(-c3cccc(F)c3)nc2c2ccccc21)N1CCN(c2ccccc2F)CC1 | 18.7% |
| O=C(c1cccc(Cl)c1)N1CCC(c2nc3ccccc3o2)CC1 | -11.4% |
| CC(C)CCNC(=O)C1CCC(CNS(=O)(=O)c2ccc(Cl)cc2)CC1 (stereo unspecified) | active: 34.2% |
| Cc1ccc(C(=O)NC2(C(F)(F)F)N=C(c3ccccc3)N(C3CCCCC3)C2=O)cc1 (stereo unspecified) | -9.14% |
| COc1ccc(CNC(=O)c2cn(-c3cccc(OC)c3)c(=O)c3ccccc23)cc1 | -11.7% |
| COc1ccc(C(=O)NCC(c2ccc3c(c2)OCO3)N2CCOCC2)cc1OC (stereo unspecified) | 9.78% |
| CCOC(=O)c1c(C)c(-c2ccccc2)n(CC(=O)Nc2cccc(C)c2C)c1C | -14.6% |
| CC(=O)Nc1ccc(Nc2ncnc3sc4c(c23)CCCC4)cc1 | 10.8% |
| COc1ccc(Br)cc1S(=O)(=O)n1c([N+](=O)[O-])cnc1C | active: 34% |
| CCn1c(CC2C(=O)N(C)c3ccc(Br)cc32)nc2ccccc2c1=O (stereo unspecified) | -19.1% |
| Cc1cccc(C(=O)N2CCc3cc(CNS(=O)(=O)c4cccs4)ccc32)c1 | -3.06% |
| Cc1ccc2nc(N(Cc3cccnc3)C(=O)CCOc3ccccc3)sc2c1 | 12.7% |
| CCc1cc2c(cc3c(=O)n(CC(=O)NCCOC)nc(CC)n32)s1 | 4.73% |
| Cc1ccc(C)c(CNC(=O)c2sc3ncnc(N(C)C4CCCCC4)c3c2C)c1 | 7.4% |
| COc1ccc(-c2cc3ccc(O)c(CN4CCCC4)c3oc2=O)cc1OC | -6.18% |
| COc1ccc(NC(=O)C2CCCO2)cc1Cl (stereo unspecified) | active: 31.1% |
| CCC1CN(C(=O)N2CCC(C(=O)N3CCN(c4cc(C)ccc4C)CC3)CC2)c2ccccc2O1 (stereo unspecified) | -2.07% |
| Cc1cc(F)ccc1NC(=O)CCSc1nc(-c2ccco2)cc(C(F)(F)F)n1 | 6.43% |
| CCC(Sc1nnc2c3ccccc3n(C)c2n1)C(=O)Nc1nnc(C(C)C)s1 (stereo unspecified) | -5.46% |
| CCOC(=O)c1ccc(NC(=O)Cn2cnc3sc(C(=O)OCC)c(C)c3c2=O)cc1 | 5.65% |

| SMILES | inhibition |
| --- | --- |
| CCc1ccc(NC(=O)CSc2nc3c([nH]c4ccccc43)c(=O)n2-c2cccc(OC)c2)cc1 | 0.729% |
| COc1cc(C)ccc1OCCSc1nc2ccc(NC(C)=O)cc2s1 | 2.87% |
| CCCCCn1c(=O)c2c(nc3n2CCN3c2ccc(Br)cc2)n(C)c1=O | -5.68% |
| COc1cccc(-c2nnc3sc(CN4CCCCC4)cn23)c1 | 0.541% |
| CCC1CCCCN1C(=O)Cn1c(=O)n(CCCCCC(=O)NCc2ccccc2Cl)c(=O)c2sccc21 (stereo unspecified) | 5.8% |
| Cc1cccc(CCNC(=O)c2c[nH]c3ccc(S(=O)(=O)Nc4ccccc4F)cc3c2=O)c1 | 14.9% |
| Fc1ccccc1Nc1ncnc2c1nc1n2CCCCC1 | -8.45% |
| O=C(NCCc1ccc(Cl)cc1)c1ccc2c(c1)N(Cc1cccc(Cl)c1)C(=O)c1ccccc1S2(=O)=O | -12.4% |
| COc1cc(N)c(Cl)cc1C(=O)OCC(=O)c1cccs1 | active: 32.7% |
| Cn1cccc1C(=O)OCC(=O)N1CC(=O)Nc2ccccc21 | active: 33.7% |
| COC(=O)c1ccc(NC(=O)CC2C(=O)N(c3cccc(C)c3)C(=O)N2C2CCCC2)cc1 (stereo unspecified) | 4.35% |
| Cc1cc(=O)oc2c3c(ccc12)OCN(Cc1ccc(Cl)cc1)C3 | -27.3% |
| O=C(NCCC(=O)N1CCC2(CC1)NCCc1[nH]cnc12)c1ccc(Br)cc1 | active: 32% |
| O=C(CCn1ccc2cc(S(=O)(=O)N3CCCC3)ccc21)NCc1ccccc1Cl | -2.97% |
| CCc1nn2c(=O)cc(COC(=O)c3ccccc3NC(=O)c3cccs3)nc2s1 | 4.48% |
| CCn1nc(C)c2c(-c3ccccc3)cc(=O)n(C(C)C(=O)NCCc3ccccc3)c21 (stereo unspecified) | 9.13% |
| COc1ccccc1-c1nc(SCC(=O)Nc2ccc(C)c(C)c2)n[nH]1 | 6.43% |
| CSc1ccc(CCNC(=O)C2CCN(c3ncnc4c3nc3n4CCCCC3)CC2)cc1 | 24.3% |
| Cc1sc2ncn(CC(=O)N(C)c3cccc(C(F)(F)F)c3)c(=O)c2c1S(=O)(=O)N1CCN(c2ncccn2)CC1 | 3.01% |
| CCN(CC)C(=O)COc1ccc(-c2nnc(Nc3ccc(OC)c(C(=O)NC)c3)c3ccccc23)cc1 | -14.3% |
| C=C(C)C1CC=C(CN2CCC(C(=O)OCC)CC2)CC1 (stereo unspecified) | active: 72.3% |
| COc1cc(NC(=O)CCNC(=O)Cn2cnc3ccccc3c2=O)cc(OC)c1OC | 1.33% |
| CCCc1cc(N2CCN(c3ccc(OC)cc3)CC2)n2cnnc2n1 | -24.4% |
| COc1ccc(CCn2c(=O)c3cccnc3n(CC(=O)Nc3c(C)cc(C)cc3C)c2=O)cc1OC | -5.17% |

| SMILES | inhibition |
| --- | --- |
| Cc1cc(C)c(NC(=O)Nc2csc3c2CCCC3)c(C)c1 | -2.97% |
| O=C(CCCCCn1c(=O)[nH]c2ccccc2c1=O)NCc1ccc(Cl)cc1 | 14.4% |
| COc1cc(OC)cc(C(=O)N2CCN(c3ccccc3F)CC2)c1 | active: 31% |
| CC(C)(C)c1ccc(C(=O)N2CCN(Cc3cc(=O)n4nc(-c5ccccc5F)sc4n3)CC2)cc1 | -13.4% |
| Cc1ccc(NC(=O)C2CCC(CNS(=O)(=O)c3ccc4c(c3)C(C)(C)C(=O)N4C)CC2)cc1 (stereo unspecified) | -15.4% |
| CCOc1ccc(CNC(=O)Cc2ccc(NC(=O)N3CCCCc4ccccc43)cc2)cc1OC | 0.241% |
| Cc1[nH]n2c(=O)c3c(nc2c1-c1ccccc1)CCC3 | active: 35.9% |
| COc1cc(OC)c(NC(=O)Cn2cnc3nc4c(cc3c2=O)CCCC4)cc1Cl | 7.37% |
| Clc1ccc(-c2nnn3c2nc(NCc2ccc4c(c2)OCO4)c2ccccc23)cc1 | -1.66% |
| Cc1cc(=O)oc2cc(OCC(=O)Nc3c(C(C)C)cccc3C(C)C)ccc12 | 2.73% |
| O=C(CC(NCc1cccnc1)C(=O)O)Nc1ccc(O)cc1 (stereo unspecified) | 23% |
| CCOc1ccc(CCNC(=O)C2CCN(Cc3nc(-c4ccccc4C)oc3C)CC2)cc1OCC | -20.2% |
| CCN(C(=O)CSc1nc2ccccc2n1CC(=O)N1CCCC(C)C1)c1ccccc1 (stereo unspecified) | 10.6% |
| Fc1ccc(Nc2c(-c3ccco3)nc3ccccn23)cc1 | -0.117% |
| Cn1c(=O)c(=O)n(C)c2cc(S(=O)(=O)Nc3ccc(Cl)c(C(F)(F)F)c3)ccc21 | -16.7% |
| Cc1ccc(C2c3[nH]c4ccccc4c3CCN2C(=O)CCc2ccccc2)cc1 (stereo unspecified) | 1.81% |
| O=c1c2nnn(-c3cccc(F)c3)c2ncn1Cc1ccccn1 | active: 33.9% |
| O=C(COc1ccccc1)Nc1nnc(SCc2cc(=O)c3ccccc3[nH]2)s1 | -10.4% |
| Clc1ccc(-c2noc(-c3cccnc3N3CCN(c4ccccc4)CC3)n2)cc1 | -5.22% |
| COC(=O)c1ccc(NC(=O)CC2C(=O)N(c3ccc(C)cc3)C(=O)N2Cc2ccc(OC)cc2)cc1 (stereo unspecified) | 1.95% |
| CCOc1ccc(NC(=O)Cn2cc(C(=O)c3ccccc3)c(=O)c3cc4c(cc32)OCCO4)cc1 | -14.5% |
| CCc1ccccc1Nc1cc(C(=O)NCCCN(C)C2CCCCC2)c2ccccc2n1 | -20.4% |
| Cc1ccc(C)c(N2CCN(C(=O)c3nn(C)c4c3CS(=O)(=O)c3ccccc3-4)CC2)c1 | 22.3% |
| COc1ccccc1/C=C/C(=O)NCCC1=CCCCC1 | active: 35.4% |

| SMILES | inhibition |
| --- | --- |
| Cc1cnc2c(c1SCC(=O)NCc1ccccc1Cl)c(=O)n(C)c(=O)n2C | -26.2% |
| Cc1ccc(NC(=O)c2ccc3c(c2)OCCO3)cc1S(=O)(=O)Nc1cccc(Cl)c1 | active: 31.3% |
| CC(C)(Oc1ccc(Cl)cc1)C(=O)Nc1nnc2n1CCS2 | 14.7% |
| CCCCNC(=O)CC1N=C2c3ccccc3N=C(SCC(=O)NCc3ccccc3Cl)N2C1=O (stereo unspecified) | -4.06% |
| Cc1ccc(NC(=O)CCC(=O)N2CCSc3ccccc32)cc1 | 16.3% |
| COc1cccc(C(=O)Nc2cccc(OCc3cc(=O)n4cccc(C)c4n3)c2)c1 | -3.01% |
| COC(=O)c1cccc(CN2C(=O)SC(Nc3ccc(Cl)cc3)C2=O)c1 (stereo unspecified) | 8.08% |
| CCOC(=O)c1noc2ncnc(Nc3cccc(C(F)(F)F)c3)c12 | 11.1% |
| COc1ccc(Nc2c3c(nc4nncn24)CCC3)cc1Cl | 8.5% |
| O=C(Nc1ccccc1C(F)(F)F)N1CCC2(CC1)Oc1ccccc1C(=O)N2Cc1ccccc1F | -3.87% |
| CC(=O)Nc1ccc(NC(=O)CCc2c(C)nc3c(c(C)nn3-c3ccccc3)c2C)cc1 | 1.03% |
| CCCc1cc(=O)[nH]c(Nc2ccc(C)c(O)c2)n1 | -7.02% |
| CCOC(=O)c1c(C)oc2nc(C)nc(NCc3ccc(OC)cc3)c12 | -13% |
| COCCNC(=O)c1ccc2c(c1)N(Cc1c(F)cccc1Cl)C(=O)c1ccccc1S2 | -1.84% |
| O=c1c2ccccc2nc(N2CCN(c3cccc(Cl)c3)CC2)n1-c1ccccc1 | 0.409% |
| CCN(CC)CCCNC(=O)c1nn(-c2ccc(OC)cc2)c(=O)c2c1c1ccccc1n2C | -7.76% |
| CCC(C(=O)N1CCN(c2ccc(OC)cc2)CC1)n1nc(C)n2c(cc3occc32)c1=O (stereo unspecified) | 3.89% |
| Nc1ccc(S(=O)(=O)NC2(C(F)(F)F)NC(=O)N(c3cccc(Cl)c3)C2=O)cc1 (stereo unspecified) | -16% |
| Cc1c(Cl)cccc1NC(=O)Cn1cnc(S(=O)(=O)N2CCCC2)c1 | -25.2% |
| COc1ccc(NC(=O)CC2C(=O)N(c3ccc(C)cc3)C(=O)N2Cc2ccc(C)cc2)cc1 (stereo unspecified) | -4.07% |
| COc1cccc2[nH]c(C(=O)NCc3ccccc3)cc12 | active: 41.7% |
| Cc1nnc(NCc2ccc(F)cc2)c2c1nnn2Cc1ccccc1Cl | -0.991% |
| CCOc1ccc(NC(=O)CCn2nc(C)c(S(=O)(=O)N3CCCCC3)c2C)cc1 | 3.43% |
| COc1ccccc1CNCC(=O)Nc1cc(S(=O)(=O)N2CCCCCC2)ccc1Cl | active: 85.5% |
